Results: PubChem BioAssay AID1963576 (National Center for Advancing Translational Sciences (NCATS), 2024)
The whole screen tested about 46,000 compounds, of which about 60 (0.1%) were called active. Inconclusive results (about 3%) are left out. The call rests on the fitted dose curve; in most records, active means well fitted inhibition curve with a large enough effect; inconclusive means small, poorly fitted or top-dose-only effect; inactive means no such curve, though single readings can be large or run the other way. The list shows a part of the results.

Test: Primary qHTS assay for Inhibitors of ovarian cancer metastasis using an organotypic tumor microenvironment (TME) model. Further: nearly all actives have a fitted effect of over 65% in size.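 On activity change, negative = inhibition: plate controls were DMSO wells for no effect and tomatine positive control wells for full effect.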
Details: SKOV3ip1-GFP adhesion/invasion on 3D omental model, fluorescence; series mostly up to 45.8 µM; activity change, negative = inhibition: at the top concentration
In short: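 Primary human omental fibroblast/mesothelial 3D culture pre-formed 48 h. SKOV3ip1-GFP cells added with compounds (0.36-46 umol/L), incubated 2 h RT/16 h 37 C, fixed; GFP cells quantified at 488/509 nm.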

outcome, inactive:
O=C(NCCCc1nc2ccccc2n1Cc1ccc(Cl)cc1Cl)c1ccco1
CC(C)c1ccc(OCC(O)CN2CCN(c3ccc(F)cc3)CC2)cc1 (centres undefined)
O=S(=O)(c1cccc(F)c1)N1CCC(Oc2ccc(-n3cnnn3)cc2)CC1
CCc1ccc(-n2c(=O)c3c(C)c(C(=O)N(C)C)sc3n(Cc3ccccc3C#N)c2=O)cc1
Cc1ccc(CN(Cc2ccco2)C(=O)c2ccc(Cl)cc2)o1
CCc1ccccc1NC(=O)CSc1ncc(S(=O)(=O)c2ccc(C(C)C)cc2)c(N)n1
COc1ccc(-c2nc(SCC(=O)N3CCCCC3C)n[nH]2)cc1 (centres undefined)
CC1=C(C(=O)Nc2ccc(Cl)cc2)C(c2ccc(C(F)(F)F)cc2)n2nnnc2N1 (centres undefined)
CCOC(=O)c1c(C)sc(-c2c(-c3ccc(OC)c(F)c3)[nH]c3[nH]c(=O)[nH]c(=O)c23)c1O
Cc1ccc(NC(=O)C2CCCN2S(=O)(=O)c2ccc3c(c2)CCCC(=O)N3)cc1Cl (centres undefined)
CCN(CC)CCCNC(=O)CN1N=C(c2ccccc2)CCC1=O
COc1ccc(NC(=O)Cn2c(=O)n(Cc3ccc(C(=O)NCc4ccccc4Cl)cc3)c(=O)c3ccccc32)cc1
Cc1ccc(NC(=O)Cn2nnc(C(=O)NCc3cccs3)c2N)cc1Cl
Cc1nn(C)c2c1c(C(F)(F)F)cc(=O)n2C(C)C(=O)NCc1ccccc1Cl (centres undefined)
Cc1nn(CC(=O)N2CCN(c3cccc(C(F)(F)F)c3)CC2)c(=O)c2cccn12
COc1ccccc1NC(=O)CSC1=Nc2ccccc2C2=NC(CC(=O)NCc3cccs3)C(=O)N12 (centres undefined)
Cc1oc(-c2cccc(Cl)c2)nc1Cn1c(SCc2ccccc2F)nc2ccncc21
COc1ccc(-n2ncc(C(=O)N3CCOCC3)c2C2CCN(C(=O)OC(C)(C)C)CC2)cc1
CCCN(CCC)C(=O)Cn1c(=O)n(-c2ccc(Cl)cc2)c(=O)c2c3c(sc21)CCCC3
COc1ccc(NC(=O)CSc2nc(-c3ccco3)cc(C(F)(F)F)n2)cc1Cl
Fc1ccc(-c2cn3cc(Cc4ccccc4)sc3n2)cc1
N#Cc1ccccc1NC(=O)CSc1nnc(N)s1
CCN(C(=O)c1cn(CC)c(=O)c2cc(OC)c(OC)cc12)c1ccc(C)c(C)c1
COc1cccc(-n2nnc(-c3nc(-c4ccccc4F)no3)c2C)c1
O=C(Nc1cccc(F)c1F)C1CCN(c2ncccn2)CC1
COc1ccc(OC)c(CNC(=O)CN2CC(C)Sc3ccccc32)c1 (centres undefined)
COc1ccc(NC(=O)c2csc3c2CCCCC3)cc1
COc1ccc(S(=O)(=O)c2nnn(-c3cc(Cl)c(OC)cc3OC)c2C)cc1
COc1ccc(OC)c(NC(=O)CN(C)S(=O)(=O)c2ccc(C(=O)N3CCOCC3)s2)c1
CCC(C(=O)Nc1cccc(Cl)c1C)n1nc(-c2ccc(C)cc2)ccc1=O (centres undefined)

Activity change, negative = inhibition, inactive:
Cc1ccccc1NC(=O)c1ccc(Cl)c(S(=O)(=O)N2CCCCCC2)c1 -9.23%
CCCCNS(=O)(=O)c1ccc2nc(-c3cccnc3)cc(C(=O)NCCOC)c2c1 2.69%
CCOCCCNC(=O)c1c(NC(=O)Cc2coc3ccc(C)cc23)sc2c1CCC2 -0.0919%
CCc1ccc(S(=O)(=O)c2c(C(=O)c3ccccc3)cnc3ccc(CC)cc23)cc1 2.65%
COc1ccc(OC)c(NC(=O)Cc2c(C(=O)O)n(C)c3ccc(C)cc23)c1 -1.13%
O=C1c2[nH]nc(-c3ccccc3O)c2C(c2ccc(F)cc2)N1CCO (centres undefined) -0.225%
COc1ccc(NC(=O)CSc2nccn2Cc2ccco2)c(OC)c1 2.86%
CCC1CCCCN1C(=O)Cn1c(=O)cc(C(F)(F)F)c2c(C)nn(C)c21 (centres undefined) 2.96%
CCc1cccc(C)c1Nc1c(-c2cccc(O)c2)nc2nc(C)cc(C)n12 -6.4%
COC(=O)c1cnn(-c2ccc(C(=O)Nc3cc(OC)c(OC)c(OC)c3)cc2)c1N 2.23%
CCOC(=O)c1cc(-c2ccc(OC)cc2)n(CCC(=O)Nc2nc3ccc(OCC)cc3s2)c1C -9.05%
COc1ccc(NC(=O)c2c(NC(=O)Cc3ccccc3)sc3c2CCCC3)cc1 -1.12%
O=C(CSc1ccc2nc(-c3ccccc3)cn2n1)Nc1cccc(F)c1 7.88%
Cc1cccc(NC(=O)CSc2nc3ccc(NC(=O)COc4ccccc4F)cc3s2)c1 -7.05%
Cc1cc(F)ccc1NC(=O)Cn1c(=O)ccc2cc(S(=O)(=O)N3CCC(C)CC3)ccc21 4.59%
COc1ccc(Cn2nnc3c(=O)[nH]c(C4CCN(C(=O)c5ccc(C)cc5)CC4)nc32)cc1OC -1.75%
COc1ccc(CNC(=O)c2ccc(CNS(=O)(=O)c3ccc(F)cc3)cc2)cc1 -20.3%
COC(=O)c1sccc1S(=O)(=O)N(CC(=O)NCc1ccc(F)cc1)c1ccc(Cl)cc1 13.8%
COc1ccc(CCNC(=O)c2ccc3c(c2)N(Cc2ccccc2C)C(=O)c2ccccc2S3)cc1OC 3.2%
Cc1ccccc1NC(=O)CSc1nnc(-c2cccs2)o1 0.93%
CCOC(=O)O[C@]1(C(=O)OCCl)CC[C@@H]2[C@H]3CCC4=CC(=O)C=C[C@]4(C)[C@@H]3[C@@H](O)C[C@@]21C -2.93%
Cc1cc(C)cc(NC(=O)Cn2c(C(F)(F)F)nc3ccccc32)c1 -6.21%
CCCCS(=O)(=O)c1nc(-c2ccc(Br)cc2)cc(-c2ccccc2)c1C#N -26%
Cc1ccc(Cl)cc1N1CCN(C(=O)c2cc3c(-c4ccccc4F)nn(C)c3s2)CC1 -7.4%
CCc1ccc2oc(-c3cc(NC(=O)c4cc([N+](=O)[O-])ccc4N4CCOCC4)ccc3Cl)nc2c1 5.65%
COc1ccc(CNC(=O)c2cnc(N3CCOCC3)c3ccccc23)cc1 5.19%
Cc1ccc(N2CCN(S(=O)(=O)c3ccc4[nH]c5c(c4c3)CCCCC5)CC2)c(C)c1 12.4%
CC1CCc2c(sc3nnn(CC(=O)Nc4ccc(Cl)cc4)c(=O)c23)C1 (centres undefined) 2.95%
COc1cccc(Nc2c(C(N)=O)cnc3c(C)cc(S(=O)(=O)c4cccc(C(=O)N(C)C)c4)cc23)c1 -8.73% [at 23.2 µM]
O=C1COc2ccc(-c3cc(-c4ccccc4)c4c(n3)-c3cc(Cl)ccc3OC4)cc2N1 2.91%
Cc1cccc(NC(=O)CCc2c(C)nc3c(c(C)nn3C(C)(C)C)c2C)c1C -7.05%
Cn1c(=O)c2sccc2n2c(CCCC(=O)NCc3ccccc3)nnc12 -24.9%
COc1ccc(-c2nc3c(c(SCC(=O)N4CCCCC4)n2)Cc2c(CO)cnc(C)c2O3)cc1 4.2%
CSc1cccc(NC(=O)Cn2ncn3c(cc4ccccc43)c2=O)c1 17.6%
COC(=O)c1cc2occc2n1CC(=O)Nc1ccc(C(C)C)cc1 1.84%
O=C(Nc1ccc(F)cc1)N1CCN(C(=O)c2nsc3ccccc23)CC1 8.52%
Fc1ccccc1N1CCN(c2ncc3c(n2)CCN(Cc2cc(Br)cs2)C3)CC1 -23%
CCOc1ccccc1NC(=O)C(c1ccccc1)N1Cc2ccccc2C1=O (centres undefined) -6.84%
Cn1nnc2c(N3CCN(c4cccc(C(F)(F)F)c4)CC3)ncnc21 5.25%
Cc1cccc(N2CCN(C(c3ccccc3)c3nnc(-c4ccccc4Cl)o3)CC2)c1C (centres undefined) -2.57%
CCCN(C(=O)c1nn(-c2ccc(OC)cc2)c(=O)c2c1c1ccccc1n2C)c1ccc(CC)cc1 0.637%
Cc1ccc(Cc2c(C)nc3nc(SCC(=O)NC(C)c4ccccc4)nn3c2C)cc1 (centres undefined) -25.9%
Cc1ccc(Cc2nc3ccccc3nc2SCC(=O)NCCC(C)C)cc1 -4.75%
COc1cccc(-c2nc(SCc3cc(=O)c4ccc(C)c(C)c4[nH]3)n[nH]2)c1 0.0223%
CCOc1ccc(NC(=O)Cn2cc(C(=O)c3ccc(CC)cc3)c(=O)c3cc(C)ccc32)cc1 -25.5%
CCOc1cccc(C(=O)Nc2ccc(S(=O)(=O)N(Cc3ccccc3)c3ccccc3)cc2)c1 -6.44%
COc1ccc(C(=O)NCC(c2cccnc2)N2CCc3ccccc3C2)cc1OC (centres undefined) 4.35%
COC(=O)c1cc2occc2n1Cc1nc(-c2ccccc2F)oc1C -12.6%
Cn1c(=O)c2c(-c3ccccc3)n3c4ccccc4nc(-c4ccccc4)c3c2n(C)c1=O 8.44%
O=C(CSc1nc2c([nH]c3ccccc32)c(=O)n1-c1ccc(F)cc1)NCc1ccccc1 -5.38%
CCOCCCn1c(SCC(=O)Nc2ccc(C(C)C)cc2)nc2c(sc3ccccc32)c1=O 3.95%
Cc1ccc(CN2CCC(CNc3ncnc4onc(-c5ccc(F)cc5)c34)CC2)cc1 1.11%
O=C(Nc1cccc(-c2nc3cc(Cl)ccc3o2)c1)c1cc([N+](=O)[O-])ccc1N1CCOCC1 1.77%
CCn1c(=O)c2cc(C(=O)Nc3cc(F)ccc3F)sc2c2ccccc21 4.61%
COc1ccc(CN2C(=O)c3oc4ccccc4c(=O)c3C2c2ccc(O)cc2)cc1 (centres undefined) 1.29%
COc1ccc(C)cc1NC(=O)N(Cc1ccc(C)o1)C1CCN(C(C)=O)CC1 -10.4%
COc1ccccc1NC(=O)Cn1c(=O)n(Cc2ccccc2)c(=O)c2sc3ccccc3c21 -10.2%
Cc1ccc(-c2nnc(Nc3cccc(Cl)c3)c3ccccc23)cc1S(=O)(=O)N1CCOCC1 0.132%
O=C(Cn1cnc2c(oc3ccccc32)c1=O)Nc1ccccc1C(F)(F)F -1.64%
CCC(=O)Nc1cc(C)c(O)c(-c2nc3ncccc3o2)c1 6.98%
CC1CCN(C(=O)Cn2cc(SCC(=O)NCc3ccccc3Cl)c3ccccc32)CC1 7.92%
CCCc1nc2sc3c(N4CCC(C)CC4)ncnc3c2c2c1CCCC2 0.735%
CC(C)COc1cccc(C(=O)Nc2ccc(-c3nc4ncccc4o3)cc2)c1 -9.46%
CC(C)COc1ccc(C(=O)Nc2ccc(S(=O)(=O)Nc3ncccn3)cc2)cc1 -2.84%
